# Source: the supplement of paper PMC8728848
# The other results are listed elsewhere or left out.
# B1: Pa IMPa (Pseudomonas aeruginosa), Q9I5W4 (protein)
# chain: MSLSTTAFPSLQGENMSRSPIPRHRALLAGFCLAGALSAQAATQEEILDAALVSGDSSQLTDSHLVALRLQQQVERIRQTRTQLLDGLYQNLSQAYDPGAASMWVLPANPDNTLPFLIGDKGRVLASLSLEAGGRGLAYGTNVLTQLSGTNAAHAPLLKRAVQWLVNGDPGAATAKDFKVSVVGVDKTAALNGLKSAGLQPADAACNALTDASCASTSKLLVLGNGASAASLSATVRARLQAGLPILFVHTNGWNQSSTGQQILAGLGLQEGPYGGNYWDKDRVPSSRTRTRSVELGGAYGQDPALVQQIVDGSWRTDYDWSKCTSYVGRTTCDDVPGLSDFSKRVDVLKGALDAYNQKAQNLFALPGTTSLRLWLLWADAVRQNIRYPMDKAADTARFQETFVADAIVGYVREAGAAQKELGSYAGQRQQSMPVSGSEETLTLTLPSAQGFTAIGRMAAPGKRLSIRIEDAGQASLAVGLNTQRIGSTRLWNTRQYDRPRFLKSPDIKLQANQSVALVSPYGGLLQLVYSGATPGQTVTVKVTGAASQPFLDIQPGEDSSQAIADFIQALDADKADWLEIRSGSVEVHAKVEKVRGSIDKDYGGDVQRFIRELNEVFIDDAYTLAGFAIPNQAKTPAIQQECAARGWDCDSETLHKLPGTQHINVDQYAQCGGGCSGNPYDQTWGLNPRGWGESHELGHNLQVNRLKVYGGRSGEISNQIFPLHKDWRVLREFGQNLDDTRVNYRNAYNLIVAGRAEADPLAGVYKRLWEDPGTYALNGERMAFYTQWVHYWADLKNDPLQGWDIWTLLYLHQRQVDKSDWDANKAALGYGTYAQRPGNSGDASSTDGNDNLLLGLSWLTQRDQRPTFALWGIRTSAAAQAQVAAYGFAEQPAFFYANNRTNEYSTVKLLDMSQGSPAWPFP
# Legend:
# Assay in all cases: glycan array binding signal (z-score within array); higher = stronger binding
# Conditions in all cases: glycan notation: IUPAC condensed, linker removed
# [1] = biological target: Gal3S(b1-4)Glc
# Summary of the method: (§1)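 The binding signal is a Z-score computed within each array and averaged over linkers. Arrays of the same protein sequence at different concentrations or buffers were also averaged together. Data originate from 3228 arrays in the Consortium for Functional Glycomics database, kept only where the protein sequence was available.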
# [2] = biological target: Gal3S(b1-4)Glc6S
# Summary of the method: as §1
# [3] = biological target: Gal3S(b1-4)GlcNAc
# Summary of the method: as §1
# [4] = biological target: Gal3S(b1-4)[Fuc(a1-3)]Glc6S
# Summary of the method: as §1
# [5] = biological target: Gal3S(b1-4)[Fuc(a1-3)]GlcNAc
# Summary of the method: as §1
# [6] = biological target: Gal3S(b1-4)[Fuc(a1-3)]GlcNAc6S
# Summary of the method: as §1
# [7] = biological target: Gal3S4S(b1-4)GlcNAc
# Summary of the method: as §1
# [8] = biological target: Gal3S6S(b1-4)GlcNAc
# Summary of the method: as §1
# [9] = biological target: Gal3S6S(b1-4)GlcNAc6S
# Summary of the method: as §1
# [10] = biological target: Gal4S(b1-4)GlcNAc
# Summary of the method: as §1
# [11] = biological target: Gal4S6S(b1-4)GlcNAc
# Summary of the method: as §1
# [12] = biological target: Gal6P(b1-4)GlcNAc
# Summary of the method: as §1
# [13] = biological target: Gal6S(b1-3)GlcNAc
# Summary of the method: as §1
# [14] = biological target: Gal6S(b1-3)GlcNAc6S
# Summary of the method: as §1
# [15] = biological target: Gal6S(b1-4)Glc
# Summary of the method: as §1
# [16] = biological target: Gal6S(b1-4)Glc6S
# Summary of the method: as §1
# [17] = biological target: Gal6S(b1-4)GlcNAc
# Summary of the method: as §1
# [18] = biological target: Gal6S(b1-4)GlcNAc6S
# Summary of the method: as §1
# [19] = biological target: GalNAc(a1-3)Gal
# Summary of the method: as §1
# [20] = biological target: GalNAc(a1-3)GalNAc
# Summary of the method: as §1
# [21] = biological target: GalNAc(a1-3)GalNAc(b1-3)Gal(a1-4)Gal(b1-4)Glc
# Summary of the method: as §1
# [22] = biological target: GalNAc(a1-3)GalNAc(b1-3)Gal(a1-4)Gal(b1-4)GlcNAc
# Summary of the method: as §1
# [23] = biological target: GalNAc(b1-3)Gal
# Summary of the method: as §1
# [24] = biological target: GalNAc(b1-3)Gal(a1-4)Gal(b1-4)GlcNAc
# Summary of the method: as §1
# [25] = biological target: GalNAc(b1-3)Gal(a1-4)Gal(b1-4)GlcNAc(b1-3)Gal(b1-4)Glc
# Summary of the method: as §1
# [26] = biological target: GalNAc(b1-3)Gal(a1-6)Gal(b1-4)Glc
# Summary of the method: as §1
# [27] = biological target: GalNAc(b1-3)GalNAc
# Summary of the method: as §1
# [28] = biological target: GalNAc(b1-3)GlcNAc
# Summary of the method: as §1
# [29] = biological target: GalNAc(b1-4)Gal(b1-4)Glc
# Summary of the method: as §1
# [30] = biological target: GalNAc(b1-4)GlcNAc
# Summary of the method: as §1
binder,measurement,setting,value
B1,glycan array binding signal (z-score),[1],-0.329
same,glycan array binding signal (z-score),[2],-0.21
same,glycan array binding signal (z-score),[3],-0.456
same,glycan array binding signal (z-score),[4],-0.212
same,glycan array binding signal (z-score),[5],0.065
same,glycan array binding signal (z-score),[6],0.344
same,glycan array binding signal (z-score),[7],0.552
same,glycan array binding signal (z-score),[8],-0.085
same,glycan array binding signal (z-score),[9],0.617
same,glycan array binding signal (z-score),[10],-0.002
same,glycan array binding signal (z-score),[11],0.667
same,glycan array binding signal (z-score),[12],-0.196
same,glycan array binding signal (z-score),[13],1.34
same,glycan array binding signal (z-score),[14],0.532
same,glycan array binding signal (z-score),[15],-0.194
same,glycan array binding signal (z-score),[16],0.198
same,glycan array binding signal (z-score),[17],0.036
same,glycan array binding signal (z-score),[18],0.936
same,glycan array binding signal (z-score),[19],-0.34
same,glycan array binding signal (z-score),[20],-0.421
same,glycan array binding signal (z-score),[21],-0.1
same,glycan array binding signal (z-score),[22],-0.478
same,glycan array binding signal (z-score),[23],-0.522
same,glycan array binding signal (z-score),[24],-0.273
same,glycan array binding signal (z-score),[25],0.987
same,glycan array binding signal (z-score),[26],0.025
same,glycan array binding signal (z-score),[27],-0.268
same,glycan array binding signal (z-score),[28],-0.214
same,glycan array binding signal (z-score),[29],0.113
same,glycan array binding signal (z-score),[30],-0.367
